Among the data in paper PMC6338798 are binding values, retold here.

Chains of the proteins cited; added tags and fusions are not shown.
UniProt P35222: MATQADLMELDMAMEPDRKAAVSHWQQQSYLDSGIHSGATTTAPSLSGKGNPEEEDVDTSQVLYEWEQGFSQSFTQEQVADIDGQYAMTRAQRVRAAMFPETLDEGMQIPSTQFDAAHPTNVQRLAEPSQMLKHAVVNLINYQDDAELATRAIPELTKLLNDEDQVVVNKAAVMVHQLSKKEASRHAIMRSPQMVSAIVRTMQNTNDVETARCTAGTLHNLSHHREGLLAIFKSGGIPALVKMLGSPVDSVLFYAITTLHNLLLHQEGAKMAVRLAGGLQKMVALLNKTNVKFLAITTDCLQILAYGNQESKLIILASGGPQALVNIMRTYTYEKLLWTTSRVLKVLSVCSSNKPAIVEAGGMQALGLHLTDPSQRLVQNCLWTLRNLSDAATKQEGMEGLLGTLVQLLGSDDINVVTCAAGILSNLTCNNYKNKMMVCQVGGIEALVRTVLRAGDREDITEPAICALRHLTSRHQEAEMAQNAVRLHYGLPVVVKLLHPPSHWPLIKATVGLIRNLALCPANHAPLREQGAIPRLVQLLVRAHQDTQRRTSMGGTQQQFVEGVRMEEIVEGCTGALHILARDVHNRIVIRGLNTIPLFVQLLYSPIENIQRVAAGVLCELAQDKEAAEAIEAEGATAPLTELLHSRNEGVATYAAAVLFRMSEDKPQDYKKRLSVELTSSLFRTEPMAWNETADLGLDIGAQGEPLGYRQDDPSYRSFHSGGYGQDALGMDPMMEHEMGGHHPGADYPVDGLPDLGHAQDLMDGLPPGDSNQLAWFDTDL
UniProt Q9UJU2: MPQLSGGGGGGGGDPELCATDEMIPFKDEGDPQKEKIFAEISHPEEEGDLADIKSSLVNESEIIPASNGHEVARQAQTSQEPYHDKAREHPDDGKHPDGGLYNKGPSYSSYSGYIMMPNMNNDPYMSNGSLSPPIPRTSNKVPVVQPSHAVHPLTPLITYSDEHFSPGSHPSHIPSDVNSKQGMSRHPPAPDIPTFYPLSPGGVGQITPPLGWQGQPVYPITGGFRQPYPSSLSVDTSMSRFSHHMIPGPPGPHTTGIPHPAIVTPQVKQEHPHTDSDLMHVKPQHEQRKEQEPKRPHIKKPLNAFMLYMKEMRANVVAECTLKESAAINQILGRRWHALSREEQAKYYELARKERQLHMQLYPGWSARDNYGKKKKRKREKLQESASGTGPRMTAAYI

Results are given in words; binding and its absence hold for the method and conditions named. In cells and extracts the contact can be indirect. Some results given as binding are weak or reduced against the parent protein; the word gives no strength. For part of these data: Tags and fused reporters may be left off the sequences shown.

Experiment [1] concerns the target β-catenin, endogenous (human (endogenous in chondrocytes)) (UniProt P35222). Briefly: co-IP; subcellular separation of chondrocytes into cytoplasmic and nuclear fractions, then immunoprecipitation of endogenous proteins.
Experiment [2] has as its target T1, GST-HPIP (101–200) (UniProt Q96AQ6).
T1 sequence: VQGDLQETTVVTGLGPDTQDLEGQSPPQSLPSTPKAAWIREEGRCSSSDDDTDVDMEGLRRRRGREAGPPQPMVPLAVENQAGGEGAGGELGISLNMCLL
Briefly: pull-down; GST or GST-HPIP fusion proteins on Sepharose (GST) beads incubated with lysates of OA chondrocytes expressing FLAG-LEF1; immunoblot of bound proteins; only the target purified.

For experiment [3], the target named is T2, GST-HPIP (1–100) (UniProt Q96AQ6).
T2 sequence: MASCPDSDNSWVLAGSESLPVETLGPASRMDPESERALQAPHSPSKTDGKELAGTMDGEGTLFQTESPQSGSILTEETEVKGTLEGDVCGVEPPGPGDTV
The description is as above.

Experiment [4] has as its target T3, GST-HPIP (221–361) (UniProt Q96AQ6).
T3 sequence: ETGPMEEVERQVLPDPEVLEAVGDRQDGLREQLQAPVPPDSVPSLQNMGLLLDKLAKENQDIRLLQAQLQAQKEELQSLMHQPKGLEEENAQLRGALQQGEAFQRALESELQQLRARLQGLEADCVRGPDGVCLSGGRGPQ
Described as above.

The target in experiment [5] is T4, GST-HPIP (542–731) (UniProt Q96AQ6).
T4 sequence: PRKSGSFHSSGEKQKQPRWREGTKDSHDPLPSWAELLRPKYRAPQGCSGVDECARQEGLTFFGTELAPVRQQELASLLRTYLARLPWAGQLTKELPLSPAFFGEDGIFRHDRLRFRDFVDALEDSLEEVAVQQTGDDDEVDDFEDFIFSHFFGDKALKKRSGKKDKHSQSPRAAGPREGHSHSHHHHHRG
The description is as above.

The target of experiment [6] is T5, hematopoietic pre-B cell leukemia transcription factor-interacting protein (HPIP), endogenous (human (endogenous in chondrocytes)) (UniProt Q96AQ6).
T5 sequence: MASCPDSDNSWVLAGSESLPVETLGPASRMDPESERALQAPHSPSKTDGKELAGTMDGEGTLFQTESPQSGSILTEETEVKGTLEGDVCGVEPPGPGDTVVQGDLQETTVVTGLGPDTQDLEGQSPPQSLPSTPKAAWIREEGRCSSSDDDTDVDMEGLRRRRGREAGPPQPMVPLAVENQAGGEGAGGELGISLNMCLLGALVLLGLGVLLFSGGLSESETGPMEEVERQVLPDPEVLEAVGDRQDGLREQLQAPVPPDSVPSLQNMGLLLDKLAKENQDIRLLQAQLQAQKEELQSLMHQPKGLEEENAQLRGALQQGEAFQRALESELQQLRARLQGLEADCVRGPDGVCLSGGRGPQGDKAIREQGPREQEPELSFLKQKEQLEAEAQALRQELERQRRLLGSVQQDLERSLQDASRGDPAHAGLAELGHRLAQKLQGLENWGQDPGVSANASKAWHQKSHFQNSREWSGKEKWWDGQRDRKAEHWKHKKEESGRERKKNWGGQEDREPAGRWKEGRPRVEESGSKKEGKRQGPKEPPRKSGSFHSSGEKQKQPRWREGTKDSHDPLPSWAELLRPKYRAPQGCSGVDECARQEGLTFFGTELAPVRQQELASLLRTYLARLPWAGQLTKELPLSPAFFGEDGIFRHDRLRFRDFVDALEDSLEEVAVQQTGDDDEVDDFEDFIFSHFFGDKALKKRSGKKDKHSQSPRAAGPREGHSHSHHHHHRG
Nature of the experiment: co-IP; subcellular separation of chondrocytes into cytoplasmic and nuclear fractions, then immunoprecipitation of endogenous proteins.

For “lymphoid enhancer binding factor 1 (LEF1), endogenous (from UniProt Q9UJU2 1-399)”, the binding entry in experiment [1] is listed as “binds”.
In the case of “FLAG-tagged LEF1 (from UniProt Q9UJU2 1-399)”, the binding result in experiment [2], in experiment [3], in experiment [4] and in experiment [5] was “no binding” each time.
In the case of “β-catenin, endogenous (from UniProt P35222 1-781)”, the binding entry in experiment [6] is recorded as “binds”.
